Assay results reported in PMC9911399, “Two distinct binding modes provide the RNA-binding protein RbFox with extraordinary sequence specificity”.
Positions count from the first letter of the chain named. Some of the results follow.

T1: RBFOX1 RRM (Homo sapiens, UniProt Q9NWB1 109-208)
T1 sequence: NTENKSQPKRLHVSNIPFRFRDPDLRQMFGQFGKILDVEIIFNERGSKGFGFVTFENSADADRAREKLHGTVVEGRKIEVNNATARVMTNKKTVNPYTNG

B1: CCGUCCC (DNA:RNA)
RNA: GGGAGACCGGAAUUCAGAUUGUCCCCGUCCCUUAAAUCCCGUCGUAGCCACCA
DNA 1: CAATCTGAATTCCGGTCTCCC
DNA 2: TGGTGGCTACGACGGGATT
B2: GUGUAAC (DNA:RNA)
RNA: B1 RNA with C25G, C26U, C29A, C30A
DNA 1: CAATCTGAATTCCGGTCTCCC
DNA 2: TGGTGGCTACGACGGGATT
B3: GGUCCUU (DNA:RNA)
RNA: B1 RNA with C25G, C26G, G27U, U28C, C30U, C31U
DNA 1: CAATCTGAATTCCGGTCTCCC
DNA 2: TGGTGGCTACGACGGGATT
B4: CGCUUCG (DNA:RNA)
RNA: B1 RNA with C26G, G27C, C29U, C31G
DNA 1: CAATCTGAATTCCGGTCTCCC
DNA 2: TGGTGGCTACGACGGGATT
B5: ACGUAAG (DNA:RNA)
RNA: B1 RNA with C25A, C29A, C30A, C31G
DNA 1: CAATCTGAATTCCGGTCTCCC
DNA 2: TGGTGGCTACGACGGGATT
B6: ACAACAA (DNA:RNA)
RNA: B1 RNA with C25A, G27A, U28A, C30A, C31A
DNA 1: CAATCTGAATTCCGGTCTCCC
DNA 2: TGGTGGCTACGACGGGATT
B7: ACCGCCA (DNA:RNA)
RNA: B1 RNA with C25A, G27C, U28G, C31A
DNA 1: CAATCTGAATTCCGGTCTCCC
DNA 2: TGGTGGCTACGACGGGATT
B8: CGCCAGA (DNA:RNA)
RNA: B1 RNA with C26G, G27C, U28C, C29A, C30G, C31A
DNA 1: CAATCTGAATTCCGGTCTCCC
DNA 2: TGGTGGCTACGACGGGATT
B9: UGAUAGA (DNA:RNA)
RNA: B1 RNA with C25U, C26G, G27A, C29A, C30G, C31A
DNA 1: CAATCTGAATTCCGGTCTCCC
DNA 2: TGGTGGCTACGACGGGATT
B10: GCCUAGC (DNA:RNA)
RNA: B1 RNA with C25G, G27C, C29A, C30G
DNA 1: CAATCTGAATTCCGGTCTCCC
DNA 2: TGGTGGCTACGACGGGATT
B11: CGCUCCA (DNA:RNA)
RNA: B1 RNA with C26G, G27C, C31A
DNA 1: CAATCTGAATTCCGGTCTCCC
DNA 2: TGGTGGCTACGACGGGATT
B12: AACUGCG (DNA:RNA)
RNA: B1 RNA with C25A, C26A, G27C, C29G, C31G
DNA 1: CAATCTGAATTCCGGTCTCCC
DNA 2: TGGTGGCTACGACGGGATT
B13: UACUGCU (DNA:RNA)
RNA: B1 RNA with C25U, C26A, G27C, C29G, C31U
DNA 1: CAATCTGAATTCCGGTCTCCC
DNA 2: TGGTGGCTACGACGGGATT
B14: AAACCUA (DNA:RNA)
RNA: B1 RNA with C25A, C26A, G27A, U28C, C30U, C31A
DNA 1: CAATCTGAATTCCGGTCTCCC
DNA 2: TGGTGGCTACGACGGGATT
B15: GGAAAUC (DNA:RNA)
RNA: B1 RNA with C25G, C26G, G27A, U28A, C29A, C30U
DNA 1: CAATCTGAATTCCGGTCTCCC
DNA 2: TGGTGGCTACGACGGGATT
B16: CGGCCUG (DNA:RNA)
RNA: B1 RNA with C26G, U28C, C30U, C31G
DNA 1: CAATCTGAATTCCGGTCTCCC
DNA 2: TGGTGGCTACGACGGGATT
B17: UGGUAGA (DNA:RNA)
RNA: B1 RNA with C25U, C26G, C29A, C30G, C31A
DNA 1: CAATCTGAATTCCGGTCTCCC
DNA 2: TGGTGGCTACGACGGGATT
B18: CGAUCCC (DNA:RNA)
RNA: B1 RNA with C26G, G27A
DNA 1: CAATCTGAATTCCGGTCTCCC
DNA 2: TGGTGGCTACGACGGGATT
B19: GCCUAGU (DNA:RNA)
RNA: B1 RNA with C25G, G27C, C29A, C30G, C31U
DNA 1: CAATCTGAATTCCGGTCTCCC
DNA 2: TGGTGGCTACGACGGGATT
B20: AAGGCUA (DNA:RNA)
RNA: B1 RNA with C25A, C26A, U28G, C30U, C31A
DNA 1: CAATCTGAATTCCGGTCTCCC
DNA 2: TGGTGGCTACGACGGGATT
B21: CGUCUGG (DNA:RNA)
RNA: B1 RNA with C26G, G27U, U28C, C29U, C30G, C31G
DNA 1: CAATCTGAATTCCGGTCTCCC
DNA 2: TGGTGGCTACGACGGGATT
B22: GCCUUGU (DNA:RNA)
RNA: B1 RNA with C25G, G27C, C29U, C30G, C31U
DNA 1: CAATCTGAATTCCGGTCTCCC
DNA 2: TGGTGGCTACGACGGGATT
B23: GAACGAU (DNA:RNA)
RNA: GGGAGACCGGAAUUCAGAUUGUCCGAACGAUUUAAAUCCCGUCGUAGCCACCA
DNA 1: CAATCTGAATTCCGGTCTCCC
DNA 2: TGGTGGCTACGACGGGATT
B24: CUGCACA (DNA:RNA)
RNA: B1 RNA with C26U, U28C, C29A, C31A
DNA 1: CAATCTGAATTCCGGTCTCCC
DNA 2: TGGTGGCTACGACGGGATT
B25: CCACUCA (DNA:RNA)
RNA: B1 RNA with G27A, U28C, C29U, C31A
DNA 1: CAATCTGAATTCCGGTCTCCC
DNA 2: TGGTGGCTACGACGGGATT
B26: GUUCAGG (DNA:RNA)
RNA: B23 RNA with A26U, A27U, G29A, A30G, U31G
DNA 1: CAATCTGAATTCCGGTCTCCC
DNA 2: TGGTGGCTACGACGGGATT
B27: GAAAAAA (DNA:RNA)
RNA: B23 RNA with C28A, G29A, U31A
DNA 1: CAATCTGAATTCCGGTCTCCC
DNA 2: TGGTGGCTACGACGGGATT
B28: CUGCGUC (DNA:RNA)
RNA: B1 RNA with C26U, U28C, C29G, C30U
DNA 1: CAATCTGAATTCCGGTCTCCC
DNA 2: TGGTGGCTACGACGGGATT
B29: UCACACU (DNA:RNA)
RNA: B23 RNA with G25U, A26C, G29A, A30C
DNA 1: CAATCTGAATTCCGGTCTCCC
DNA 2: TGGTGGCTACGACGGGATT
B30: AGGCUAC (DNA:RNA)
RNA: B1 RNA with C25A, C26G, U28C, C29U, C30A
DNA 1: CAATCTGAATTCCGGTCTCCC
DNA 2: TGGTGGCTACGACGGGATT
B31: CGGAAAA (DNA:RNA)
RNA: B1 RNA with C26G, U28A, C29A, C30A, C31A
DNA 1: CAATCTGAATTCCGGTCTCCC
DNA 2: TGGTGGCTACGACGGGATT

Each binder was assayed against T1, RBFOX1 RRM (assay: EMSA; HiTS-Eq, 1 nM pool, 10 min; buffer printed only for the single-RNA assays: 10 mM Tris pH 7.5, 150 mM NaCl, 3.4 mM EDTA, 0.001% NP-40, 30 C). Settings: tags: His6 N-terminal (pET28a); label: 5' 32P.
In short: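 Purified wild-type or mutant RbFox RRM at increasing concentrations was equilibrated with 1 nM of 5′-radiolabelled RNA carrying 7 randomized nucleotides for 10 min in 50 µL. Unbound RNA was separated by 8% native PAGE and sequenced. Relative association constants came from read-count changes of each RNA species compared with the control reaction, normalised to the cognate motif.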
In the case of B1, the binding signal is reported as 0.00945 KA relative to UGCAUGU.
In the case of B2, the binding signal is reported as 0.014 KA relative to UGCAUGU.
For B3, the binding signal was 0.0031 KA relative to UGCAUGU.
For B4, the binding signal was 0.0157 KA relative to UGCAUGU.
In the case of B5, the binding signal is reported as 0.0103 KA relative to UGCAUGU.
With B6 the binding signal was 0.000964 KA relative to UGCAUGU.
With B7 the binding signal was 0.00143 KA relative to UGCAUGU.
With B8 the binding signal was 0.0109 KA relative to UGCAUGU.
For B9, the binding signal was 0.0266 KA relative to UGCAUGU.
For B10, the binding signal was 0.0103 KA relative to UGCAUGU.
For B11, the binding signal was 0.00955 KA relative to UGCAUGU.
With B12 the binding signal was 0.0113 KA relative to UGCAUGU.
With B13 the binding signal was 0.0129 KA relative to UGCAUGU.
With B14 the binding signal was 0.00216 KA relative to UGCAUGU.
For B15, the binding signal was 0.0138 KA relative to UGCAUGU.
With B16 the binding signal was 0.0257 KA relative to UGCAUGU.
For B17, the binding signal was 0.0163 KA relative to UGCAUGU.
For B18, the binding signal was 0.00576 KA relative to UGCAUGU.
For B19, the binding signal was 0.0103 KA relative to UGCAUGU.
In the case of B20, the binding signal is reported as 0.00647 KA relative to UGCAUGU.
For B21, the binding signal was 0.0169 KA relative to UGCAUGU.
For B22, the binding signal was 0.0256 KA relative to UGCAUGU.
For B23, the binding signal was 0.0117 KA relative to UGCAUGU.
With B24 the binding signal was 0.0115 KA relative to UGCAUGU.
B25 was tested, and the binding signal was 0.0037 KA relative to UGCAUGU.
For B26, the binding signal was 0.0107 KA relative to UGCAUGU.
In the case of B27, the binding signal is reported as 0.000762 KA relative to UGCAUGU.
B28 was tested, and the binding signal was 0.0157 KA relative to UGCAUGU.
In the case of B29, the binding signal is reported as 0.00248 KA relative to UGCAUGU.
For B30, the binding signal was 0.0132 KA relative to UGCAUGU.
In the case of B31, the binding signal is reported as 0.0186 KA relative to UGCAUGU.
